Assay in all cases: co-IP; HA-tagged iRhom construct as bait, anti-HA magnetic beads, lysate of stably expressing HEK293 cells additionally transfected with a myc-tagged protein; western blot with α-myc antibody
(In general: Immunoblotting shows a protein as a band on a membrane.)

Test [1] addresses T1, miR2_W538S (murine iRhom2 with W538S in iCERES), in HEK293 cells (mouse) (UniProt Q80WQ6).
T1 sequence: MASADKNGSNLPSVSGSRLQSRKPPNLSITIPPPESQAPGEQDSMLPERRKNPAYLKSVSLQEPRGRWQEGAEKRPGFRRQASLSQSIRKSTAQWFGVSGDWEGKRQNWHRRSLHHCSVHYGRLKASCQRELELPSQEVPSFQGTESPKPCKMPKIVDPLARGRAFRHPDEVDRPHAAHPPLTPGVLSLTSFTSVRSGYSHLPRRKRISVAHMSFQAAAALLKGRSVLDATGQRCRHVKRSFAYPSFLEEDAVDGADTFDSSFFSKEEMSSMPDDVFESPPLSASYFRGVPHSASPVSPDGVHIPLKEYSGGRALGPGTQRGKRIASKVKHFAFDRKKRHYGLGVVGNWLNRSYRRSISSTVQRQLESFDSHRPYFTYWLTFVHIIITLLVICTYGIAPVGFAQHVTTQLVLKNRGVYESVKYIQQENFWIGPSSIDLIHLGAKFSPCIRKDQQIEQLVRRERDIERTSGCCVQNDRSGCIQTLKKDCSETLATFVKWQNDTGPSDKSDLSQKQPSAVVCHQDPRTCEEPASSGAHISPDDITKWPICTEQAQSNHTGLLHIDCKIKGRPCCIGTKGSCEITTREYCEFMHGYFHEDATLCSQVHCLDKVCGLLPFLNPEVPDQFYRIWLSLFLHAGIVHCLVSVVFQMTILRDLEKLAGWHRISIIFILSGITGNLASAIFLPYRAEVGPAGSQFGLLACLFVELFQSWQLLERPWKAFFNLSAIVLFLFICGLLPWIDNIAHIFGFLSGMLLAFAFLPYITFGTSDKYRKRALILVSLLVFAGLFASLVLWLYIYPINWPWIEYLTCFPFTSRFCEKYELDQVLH

Test [2] addresses T2, murine wt_iRhom2 (wild-type) construct with 3xHA tag, in HEK293 cells (mouse) (UniProt Q80WQ6).
T2 sequence: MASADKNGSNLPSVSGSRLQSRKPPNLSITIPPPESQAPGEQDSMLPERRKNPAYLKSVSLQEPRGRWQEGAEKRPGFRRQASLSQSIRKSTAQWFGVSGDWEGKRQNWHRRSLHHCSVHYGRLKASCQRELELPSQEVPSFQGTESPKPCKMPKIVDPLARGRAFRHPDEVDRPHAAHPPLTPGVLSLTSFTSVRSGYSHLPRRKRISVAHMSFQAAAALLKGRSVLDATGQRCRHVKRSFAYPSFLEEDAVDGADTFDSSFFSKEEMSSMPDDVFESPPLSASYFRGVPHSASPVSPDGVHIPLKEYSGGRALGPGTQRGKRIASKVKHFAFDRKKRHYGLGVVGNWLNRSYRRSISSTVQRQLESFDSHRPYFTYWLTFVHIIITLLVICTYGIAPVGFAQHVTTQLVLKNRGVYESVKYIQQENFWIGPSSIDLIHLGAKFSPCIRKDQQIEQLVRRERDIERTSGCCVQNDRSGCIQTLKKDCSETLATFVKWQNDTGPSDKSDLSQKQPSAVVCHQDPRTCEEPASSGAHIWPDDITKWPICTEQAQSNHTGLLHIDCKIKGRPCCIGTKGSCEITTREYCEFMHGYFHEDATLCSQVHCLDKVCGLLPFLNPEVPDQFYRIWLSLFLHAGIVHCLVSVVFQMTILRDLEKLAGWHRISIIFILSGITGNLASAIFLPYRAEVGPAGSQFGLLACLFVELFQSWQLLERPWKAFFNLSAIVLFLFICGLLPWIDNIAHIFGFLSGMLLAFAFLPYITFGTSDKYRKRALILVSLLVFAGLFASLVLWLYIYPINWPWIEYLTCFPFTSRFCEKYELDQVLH

Test [3] addresses T3, miR2_L438P (murine iRhom2 with L438P in the first helix of the IRHD) (mouse) (UniProt Q80WQ6).
T3 sequence: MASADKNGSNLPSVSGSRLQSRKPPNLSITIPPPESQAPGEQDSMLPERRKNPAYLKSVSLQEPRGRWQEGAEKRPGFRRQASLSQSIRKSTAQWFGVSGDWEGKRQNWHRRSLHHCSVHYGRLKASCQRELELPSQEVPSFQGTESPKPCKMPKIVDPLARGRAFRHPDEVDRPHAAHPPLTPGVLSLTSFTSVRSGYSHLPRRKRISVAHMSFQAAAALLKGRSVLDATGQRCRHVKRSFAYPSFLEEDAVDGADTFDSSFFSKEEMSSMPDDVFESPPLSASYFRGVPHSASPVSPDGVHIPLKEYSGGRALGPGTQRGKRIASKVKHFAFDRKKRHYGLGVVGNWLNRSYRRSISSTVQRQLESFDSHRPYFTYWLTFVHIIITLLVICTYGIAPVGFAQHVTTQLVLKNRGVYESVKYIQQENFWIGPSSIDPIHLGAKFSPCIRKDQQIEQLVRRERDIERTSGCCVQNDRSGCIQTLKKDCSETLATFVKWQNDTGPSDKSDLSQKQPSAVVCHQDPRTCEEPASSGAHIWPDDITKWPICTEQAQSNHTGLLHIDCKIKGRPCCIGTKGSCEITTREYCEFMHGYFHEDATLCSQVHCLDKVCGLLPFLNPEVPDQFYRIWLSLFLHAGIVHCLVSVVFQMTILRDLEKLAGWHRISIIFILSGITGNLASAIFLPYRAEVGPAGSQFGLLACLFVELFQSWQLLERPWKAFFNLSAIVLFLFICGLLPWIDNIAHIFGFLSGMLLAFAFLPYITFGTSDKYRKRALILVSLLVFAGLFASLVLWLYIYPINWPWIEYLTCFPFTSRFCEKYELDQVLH

No constants are given. Whether binding was seen depends on the method and setting. In cells and extracts the contact can be indirect. Some results given as binding are weak or reduced against the parent protein; the word gives no strength. Tags and fused reporters may be left off the sequences shown.

B1: myc-tagged mouse SEC22a (SEC22a_myc) (protein, UniProt Q8BH47 1-307)
chain: MSMILSASVIRVRDGLPLSASTDYEQSTGMQECRKYFKMLSRKLAQFPDRCTLKTGRYNINFISSLGVSYMMLCSENYPNVLAFSFLDELQKEFITTYNMMKTNTAVRPYCFIEFDNFIQRTKQRYNNPRSLSTKINLSDMQMEIKLRPPYQIPMCELGSANGVTSAFSVDCKGAGKISSAHQRLEPATLSGIVAFILSLLCGALNLIRGFHAIESLLQSDGEDLNYIIAFFLGTAACLYQCYLLVYYTSWRNVKSFLTFGLICLCNMYLYELRNLWQLFFHVTVGAFVTLQIWLRQAQGKAPDHDV
Regarding B1, the binding entry in test [1] and in test [2] was “binds” throughout.

B2: myc-tagged human syntaxin 10 (STX10_myc) (protein, UniProt O60499 1-249)
chain: MSLEDPFFVVRGEVQKAVNTARGLYQRWCELLQESAAVGREELDWTTNELRNGLRSIEWDLEDLEETIGIVEANPGKFKLPAGDLQERKVFVERMREAVQEMKDHMVSPTAVAFLERNNREILAGKPAAQKSPSDLLDASAVSATSRYIEEQQATQQLIMDEQDQQLEMVSGSIQVLKHMSGRVGEELDEQGIMLDAFAQEMDHTQSRMDGVLRKLAKVSHMTSDRRQWCAIAVLVGVLLLVLILLFSL
In the case of B2, the binding entry in test [1] and in test [2] was “binds” each time.

B3: myc-tagged human calnexin (CANX) (protein, UniProt P27824 21-592)
chain: HDGHDDDVIDIEDDLDDVIEEVEDSKPDTTAPPSSPKVTYKAPVPTGEVYFADSFDRGTLSGWILSKAKKDDTDDEIAKYDGKWEVEEMKESKLPGDKGLVLMSRAKHHAISAKLNKPFLFDTKPLIVQYEVNFQNGIECGGAYVKLLSKTPELNLDQFHDKTPYTIMFGPDKCGEDYKLHFIFRHKNPKTGIYEEKHAKRPDADLKTYFTDKKTHLYTLILNPDNSFEILVDQSVVNSGNLLNDMTPPVNPSREIEDPEDRKPEDWDERPKIPDPEAVKPDDWDEDAPAKIPDEEATKPEGWLDDEPEYVPDPDAEKPEDWDEDMDGEWEAPQIANPRCESAPGCGVWQRPVIDNPNYKGKWKPPMIDNPSYQGIWKPRKIPNPDFFEDLEPFRMTPFSAIGLELWSMTSDIFFDNFIICADRRIVDDWANDGWGLKKAADGAAEPGVVGQMIEAAEERPWLWVVYILTVALPVFLVILFCCSGKKQTSGMEYKKTDAPQPDVKEEEEEKEEEKDKGDEEEEGEEKLEEKQKSDAEEDGGTVSQEEEDRKPKAEEDEILNRSPRNRKPRRE
Consider B3, for which the binding entry in test [3], in test [1] and in test [2] was “binds” in each case.

B4: myc-tagged human syntaxin 6 (STX6_myc) (protein, UniProt O43752 1-255)
chain: MSMEDPFFVVKGEVQKAVNTAQGLFQRWTELLQDPSTATREEIDWTTNELRNNLRSIEWDLEDLDETISIVEANPRKFNLDATELSIRKAFITSTRQVVRDMKDQMSTSSVQALAERKNRQALLGDSGSQNWSTGTTDKYGRLDRELQRANSHFIEEQQAQQQLIVEQQDEQLELVSGSIGVLKNMSQRIGGELEEQAVMLEDFSHELESTQSRLDNVMKKLAKVSHMTSDRRQWCAIAILFAVLLVVLILFLVL
As for B4, the binding result was “no binding” in test [1] and “binds” in test [2].

The values are drawn from publication PMC8233286.
